Sequences and labels used below:
B1: OR4K15 (parent)
chain: GUUAACGGUCAUAGGCCAUGGAAACUAGGAGCACCAUUUCGCUGCCAGUGAAGAAAUGAACAAAGAAAAUCUGGGCCAGGCAGGCAUCAAAAGAAAUAGUCUUGCGCUCAACCAGAAAGUCUGUAAUCAUUUUAAGGGUA

The source gives no read counts; variants with many changes may rest on few reads.

The results in this text go back to the RNAGym collection of RNA variant scans (doi:10.7554/elife.90254).

The variants in this series derive from B1. The series is described as follows: self-cleavage, relative activity (ratio to wild type); higher = more cleavage; in vitro, sequencing; the parent is a self-cleaving ribozyme.
Turning to A22G A66U A118U, the self-cleavage is 0.76.
For the variant A22G A54C A94U A96G, the self-cleavage worked out at 1.77.
With A22G A91G A94G A98G U127C, the self-cleavage worked out at 0.33.
For G21U A24C U57A A59G A64G, the self-cleavage came to 1.4.
Take A22G U37C A51C A86U: the self-cleavage was 1.62.
For the variant A22G A55G U72A U97C U103C A126G, the self-cleavage came to 0.07.
In the case of A22G U37C A96C, the self-cleavage amounted to 0.73.
On to A22G A51G U87C A117G, for which the self-cleavage amounted to 2.41.
With U19C G29A U39G U139C, the self-cleavage was 1.43.
For the variant U19C U49A U102A A125G A135U, the self-cleavage came to 0.12.
Take U19C A69G A78U A117G: the self-cleavage was 0.14.
A22G A64G A78U: the self-cleavage came to 0.21.
On to U19C U38C U87C, for which the self-cleavage came to 0.69.
With G20U U37C A91G, the self-cleavage turned out to be 1.48.
A22G A30G U97A A110G: the self-cleavage is 0.12.
With A22G A66G A95G A114G U124C, the self-cleavage turned out to be 0.47.
Consider U19G A52G A60U A69G A118G U127C, for which the self-cleavage came out at 0.42.
Consider G21A A30G A68G A69U A95G, for which the self-cleavage stood at 1.66.
A22G A51G A114U: the self-cleavage stood at 0.
A22G A55G A68G A92G: the self-cleavage turned out to be 1.07.
For U19G U39C U49A A69G A125U A126G the value was 0.
With A22G A62G U131C, the self-cleavage was 1.57.
In the case of U19C A78G A91G A95G U108A C113U, the self-cleavage worked out at 0.01.
As to A22G A33G C85A A118G, the self-cleavage was found to be 0.65.
As for A22G A36G U38A U49A A56U, the self-cleavage was 1.11.
For G20A A56G A118G the value was 1.
With G21A A22G A91G U102C A114G A140G, the self-cleavage amounted to 0.32.
With A22G U26C A51G G75C A125G, the self-cleavage was found to be 0.07.
With A22C A64G A95G, the self-cleavage is 2.04.
In the case of A22G A118G U130C, the self-cleavage is 0.59.
For U19C G53U A63G A86U, the self-cleavage was 1.57.
Regarding U19G A52G A78G, the self-cleavage came to 0.45.
Take A22G A91G A117G: the self-cleavage was found to be 0.87.
For the variant A22G A94G U102C U127C, the self-cleavage was 0.95.
For the variant U19C U49C U133C, the self-cleavage came to 1.82.
As to U19C A94U A110G, the self-cleavage was determined as 0.24.
In the case of U19C U102A A116U U131C, the self-cleavage stood at 0.05.
A22C A63G A89G A117G A118G: the self-cleavage was determined as 2.18.
Under A22G A94G A116G stands 0.9.
In the case of A22G A24C U38C, the self-cleavage was found to be 1.27.
For the variant A22G A51U A55G A135G, the self-cleavage was 0.62.
On to U19G A22G U26C A63G A135G, for which the self-cleavage came to 1.37.
Consider G20A A30C U43A, for which the self-cleavage was 0.67.
In the case of U19C U57C A66G A95G, the self-cleavage turned out to be 0.7.
On to A22C A30G A59G A129C, for which the self-cleavage amounted to 0.41.
Regarding A22G A63G A66G U120C, the self-cleavage was 0.64.
For the variant U19C A78G A95G, the self-cleavage is 0.16.
As to U19C A52G A60U, the self-cleavage was found to be 1.32.
As for U19G A24G A36G A47G A95G U102C C109U, the self-cleavage was found to be 0.46.
On to A22G A51G U72A U108G, for which the self-cleavage turned out to be 0.02.
As for A22G A33G U38C U39C U49A C76A U102A U108C A116U, the self-cleavage was determined as 0.
As to U19C U57A A98U U122C, the self-cleavage was determined as 2.25.
U19C A69U A92G U131C: the self-cleavage is 1.6.
With A22G A62G U122A, the self-cleavage came out at 0.57.
For A22G U38A U132A, the self-cleavage was determined as 0.92.
As to U19G A22U A51G A82G A96G, the self-cleavage came to 0.54.
On to G20A A30U A66G A91C C107A, for which the self-cleavage is 0.03.
Under A22G U37C A52U U57C A89C stands 1.25; under A22G A27G U108C, 0.05; under G21A C34U A89U, 1.61.
As to A22G A56G U57A A78C, the self-cleavage turned out to be 0.35.
With U19C A62U U72C, the self-cleavage worked out at 0.18.
Regarding A22G C45U A67G A117G, the self-cleavage worked out at 1.87.
For A22G A67G U72A A82G A95G A129G, the self-cleavage was 0.05.
Take G20A C42U A51U A59G A60U U70C: the self-cleavage turned out to be 0.8.
For the variant A22G A60G U127A, the self-cleavage is 1.85.
For U19C C61U U70G the value was 1.36.
As to A22G A24G A52G A86G U100C G115U, the self-cleavage was 0.67.
With G20A A30U A36U A92U A95G A116G, the self-cleavage came to 1.11.
On to U19C U39A A47G, for which the self-cleavage was found to be 1.67.
Turning to U19C C32G A47G A54G A78G A110C, the self-cleavage was 0.15.
On to U19C C25A A114G U120C A135U A140G, for which the self-cleavage turned out to be 0.09.
As for A22G A64G U131C, the self-cleavage turned out to be 0.86.
As to U19C A90C A94G, the self-cleavage was 1.68.
Regarding U19C U39A U49C A52G A64G A129G, the self-cleavage was determined as 0.98.
In the case of A22G A33G U97C, the self-cleavage amounted to 0.3.
As to G20A A47G A51U U87C, the self-cleavage was found to be 0.45.
Regarding A22G A52U A63G U87C, the self-cleavage worked out at 1.22.
On to A22G A60G U72G A116G U120A, for which the self-cleavage amounted to 0.06.
For the variant A22G A111G U131C, the self-cleavage amounted to 0.06.
As to G21A U38C U39C U57C A114U, the self-cleavage turned out to be 0.06.
As for U19C A66G U87C U120C, the self-cleavage was found to be 1.7.
With G21A A47G A55G A67G U100C, the self-cleavage was determined as 0.37.
As for A22G U26A A60U G65A, the self-cleavage was determined as 0.98.
